{"source": "PubChem BioAssay AID1362", "about": "(SRMLSC, 2008)", "note": "The list shows a part of the results. The main result of the screen is listed elsewhere. These columns were measured beside it and carry no call. Compounds called inactive in the main read-out are mostly missing here."}
{"assay": "growth inhibition of WT strain, primary screen, mitochondrial fusion inhibitor project, WT and mutant strains, chemical genetic (AID 1362); note: tested in S. cerevisiae", "settings": "mitochondrial fusion phenotypic screen, at 10 µM", "units": {"inhibition": "%"}}
{"smiles": "O=C(CCCOc1ccc(Cl)cc1Cl)N1CCc2ccccc2C1", "inhibition": 46.5}
{"smiles": "O=C(COC(=O)CC(c1ccccc1)c1ccccc1)NCc1ccc(Cl)cc1", "inhibition": -3.07}
{"smiles": "CC(C)(C)NC(=S)NC(=O)C12CC3CCC(CC(C3)C1)C2", "inhibition": 37}
{"smiles": "CC1(CCc2ccccc2)NC(=S)N(c2ccc(Cl)cc2)N1", "note": "(stereo not drawn)", "inhibition": 55.8}
{"smiles": "CCOc1ccccc1OCC(=O)Nc1ccc(S(=O)(=O)N(C)C)cc1", "inhibition": 11.2}
{"smiles": "Cc1ccc(SCCNC(=S)Nc2ccccc2)cc1", "inhibition": 57.8}
{"smiles": "COc1cccc2c1C(=O)c1c(O)c3c(c(O)c1C2=O)C[C@@](O)(C(=O)CO)C[C@@H]3O[C@H]1C[C@H](N)[C@H](O)[C@H](C)O1", "inhibition": 58.7}
{"smiles": "COC(=O)Nc1snnc1C", "inhibition": -6.92}
{"smiles": "CCN(CC(O)Cn1c2ccccc2c2ccccc21)S(=O)(=O)c1ccc(F)cc1", "note": "(stereo not drawn)", "inhibition": 32.9}
{"smiles": "O=C(COc1ccc(Cl)cc1Cl)NCCC1=CCCCC1", "inhibition": 36.1}
{"smiles": "C=C(C)C1CC=C(C)/C(=N\\NC(=S)Nc2ccc(C)cc2)C1", "note": "(stereo not drawn)", "inhibition": 8.44}
{"smiles": "CCc1nnc(NC(=O)c2ccc(S(=O)(=O)N3CCCc4ccccc43)cc2)o1", "inhibition": 62.1}
{"smiles": "CC1C/C(=C/c2ccccn2)C(=O)/C(=C/c2ccccn2)C1", "note": "(stereo not drawn)", "inhibition": 65.9}
{"smiles": "Cc1cc(N2CCN(c3ccccc3)CC2)nc(-n2nc(C)cc2C)n1", "inhibition": 58.9}
{"smiles": "C=CCc1c(C)[nH]c2c(OC)cccc2c1=S", "inhibition": 33.7}
{"smiles": "Cc1nn(-c2nc3ccccc3[nH]2)c(=O)c2ccccc12", "inhibition": 87.7}
{"smiles": "N=C(N)c1ccc(OCCCCCOc2ccc(C(=N)N)cc2)cc1", "inhibition": 75.9}
{"smiles": "CCOc1ccc(NC(=O)CSc2nnc(-c3ccco3)n2C)cc1", "inhibition": -38.1}
{"smiles": "O=C(CCCCCN1C(=O)c2ccccc2C1=O)Nc1ccc(S(=O)(=O)N2CCCCC2)cc1", "inhibition": 5.22}
{"smiles": "CCNc1nc(CSc2ccccc2)nc2sc(C)c(C)c12", "inhibition": 22}
{"smiles": "NS(=O)(=O)c1ccc(N2N=C(c3ccccc3)CC2c2ccccc2)cc1", "note": "(stereo not drawn)", "inhibition": -0.77}
{"smiles": "CCCc1sc(N/N=C/c2ccccn2)nc1-c1ccc(F)cc1", "inhibition": 27.7}
{"smiles": "Cc1onc(-c2ccccc2Cl)c1C(=O)NC(=S)Nc1ccccc1F", "inhibition": 62.5}
{"smiles": "CCCCC(=O)O[C@H]1CC[C@H]2[C@@H]3CCc4cc(O)ccc4[C@H]3CC[C@]12C", "inhibition": -5.58}
{"smiles": "Cc1ccc(NC(=O)NCC2CCN(Cc3cccc(Cl)c3)CC2)cc1Cl", "inhibition": 51.3}
{"smiles": "N#CC(C#N)=C1C=CC=CN1/C(=C\\c1ccco1)C(=O)c1ccc(Br)cc1", "inhibition": 42.6}
{"smiles": "CCc1nnc(NC(=O)c2cccc(C(=O)Nc3nnc(CC)s3)n2)s1", "inhibition": 9.24}
{"smiles": "Cc1ccccc1N=C(NOCc1ccc(Cl)cc1Cl)c1nonc1N", "inhibition": 42.8}
{"smiles": "Fc1ccc(C(c2ccc(F)cc2)N2CCN(C/C=C/c3ccccc3)CC2)cc1", "inhibition": 77.7}
{"smiles": "O=C(/C=C/c1ccc(Cl)cc1Cl)N(Cc1ccc(Cl)cc1)C1CCS(=O)(=O)C1", "note": "(stereo not drawn)", "inhibition": 12}
{"smiles": "O=c1cc(N2CCCCC2)c(-c2ccccc2)nn1Cc1ccccc1Cl", "inhibition": 45.6}
{"smiles": "O=C(Nc1cc(S(=O)(=O)N2CCOCC2)ccc1Cl)C(=O)c1c(-c2ccccc2)cc2ccccn12", "inhibition": 94.5}
{"smiles": "O=C(Nc1ccc(Cl)c(Cl)c1)c1cccc(S(=O)(=O)NCc2cccnc2)c1", "inhibition": 68.7}
{"smiles": "Cc1cc(C)cc(NC(=O)c2ccc([N+](=O)[O-])o2)c1", "inhibition": 75.5}
{"smiles": "O=C(NC(=S)NCCC1=CCCCC1)c1ccc(Br)o1", "inhibition": 47}
{"smiles": "CCOC(=O)CN1C(c2ccc(O)cc2)Nc2ccc(Br)cc2C1c1ccccc1", "note": "(stereo not drawn)", "inhibition": 90.6}
{"smiles": "CCOC(=O)C1=C(Nc2ccccc2)CC(C)(O)C(C(=O)OCC)C1c1ccc(Cl)cc1", "note": "(stereo not drawn)", "inhibition": 17.6}
{"smiles": "CC/C(=N\\NC(=S)Nc1cccc(C)c1)c1ccccc1", "inhibition": 69.7}
{"smiles": "O=C(C1=C[C@H](c2csc3ccccc23)C[C@H](OCc2ccc(CO)cc2)O1)N1CCN(Cc2ccc3c(c2)OCO3)CC1", "inhibition": 31.6}
{"smiles": "CCCC[C@@H]1C[C@H]1[C@@H](NC(=O)c1ccco1)c1ccc(Cl)cc1", "inhibition": -1.03}
{"smiles": "Cc1ccc(/C=N/n2cc(-c3ccccc3)[nH]c2=S)s1", "inhibition": 59.8}
{"smiles": "CCCCN(CCCC)c1ncnc2nc[nH]c12", "inhibition": 77.1}
{"smiles": "COc1ccc(NC(=S)NC(NC(=O)c2ccc(Cl)cc2Cl)C(Cl)(Cl)Cl)c([N+](=O)[O-])c1", "note": "(stereo not drawn)", "inhibition": 16.7}
{"smiles": "FC(F)(F)c1ccc(NC(=S)NCc2ccccc2)cc1", "inhibition": 25.5}
{"smiles": "CCN=c1scc(-c2ccco2)n1/N=C/c1ccc(OC)c(O)c1", "inhibition": 5.19}
{"smiles": "Cc1cc(NCc2ccccc2)nc(-c2ccccc2O)n1", "inhibition": 43.5}
{"smiles": "Cc1ccc(C)c(/C=N/n2cc(-c3ccccc3)[nH]c2=S)c1", "inhibition": 59}
{"smiles": "C/C(=N\\N=C(/N)SC1CC(=O)N(c2ccc(Br)cc2)C1=O)c1cccs1", "note": "(stereo not drawn)", "inhibition": 46.7}
{"smiles": "CCN(Cc1ccccc1)c1ccc(/C=N/NC(=S)NC(C)C)cc1", "inhibition": 3.3}
{"smiles": "N#CC(C#N)=c1ccc2c(c1)N1C3=C(CCCC3)CC3CCCCC31N=2", "note": "(stereo not drawn)", "inhibition": 22.7}
{"smiles": "CCOc1ccc(N2CC(C(=O)NC(C)C)CC2=O)cc1", "note": "(stereo not drawn)", "inhibition": -2.76}
{"smiles": "CC(C)CNC(=S)Nc1ccc(Oc2ccccc2)cc1", "inhibition": 47.1}
{"smiles": "S=C(c1cn(CCOc2ccccc2)c2ccccc12)N1CCCC1", "inhibition": 57.9}
{"smiles": "O=C(c1cccs1)N(Cc1nc2sc3c(c2c(=O)[nH]1)CCCC3)C1CCCC1", "inhibition": 40.3}
{"smiles": "COC(=O)C1=C(O)C(C(=O)OC)C(c2ccc(C)cc2)C(C#N)(C#N)C1c1ccc(C)cc1", "note": "(stereo not drawn)", "inhibition": -5.17}
{"smiles": "S=C(Nc1ccc(Nc2ccccc2)cc1)Nc1ccccn1", "inhibition": 59.2}
{"smiles": "C(=N\\N1CCN(C2c3ccccc3-c3ccccc32)CC1)/c1ccncc1", "inhibition": 60.9}
{"smiles": "O=C(CCc1ccccc1)NNC(=S)NC(=O)c1ccc(Cl)cc1", "inhibition": 42.2}
{"smiles": "COc1cc(S(=O)(=O)N(C)C2CCCCC2)c(C)cc1C", "inhibition": 28.1}
{"smiles": "COc1ccccc1C(=O)NNC(=S)NC(=O)c1ccco1", "inhibition": 58.8}
{"smiles": "Cc1ccccc1C(=O)NC(=S)NCCC1=CCCCC1", "inhibition": 43.7}
{"smiles": "COc1ccc(NC(=S)NCCC(c2ccccc2)c2ccccc2)c(OC)c1", "inhibition": 3.38}
{"smiles": "NC(=O)C1(N2CCCCC2)CCN(c2nc(-c3ccc(Br)cc3)cs2)CC1", "inhibition": 55.3}
{"smiles": "Cn1c(O)c(N=NC(=S)Nc2ccccc2F)c2cc(S(=O)(=O)N3CCOCC3)ccc21", "inhibition": 36}
{"smiles": "C/C(=N/Nc1nc(-c2ccccc2)cc(-c2ccc(F)cc2)n1)c1cccc(N)c1", "inhibition": 25.1}
{"smiles": "O=C(Nc1ccccc1)Nc1cc(OCC(F)(F)F)cc(OCC(F)(F)F)c1", "inhibition": 27.6}
{"smiles": "CC(C)NC(=S)N/N=C/c1ccc(C(C)(C)C)cc1", "inhibition": 34.9}
{"smiles": "COc1cc(NC(=S)NCCC(c2ccccc2)c2ccccc2)cc(OC)c1", "inhibition": 2.82}
{"smiles": "O=C(c1cccc(F)c1)N1CCN(c2cc(N3CCCCC3)c(F)cc2[N+](=O)[O-])CC1", "inhibition": 50.2}
{"smiles": "O=C(COC(=O)c1ccc([N+](=O)[O-])s1)Nc1ccccc1", "inhibition": 5.74}
{"smiles": "Fc1ccc(NC(=S)Nc2ccccc2OC(F)F)cc1Cl", "inhibition": 26.1}
{"smiles": "O=C1CC(c2cccc(Cl)c2)CC(O)=C1C=Nc1cccc(Cl)c1", "note": "(stereo not drawn)", "inhibition": 45.2}
{"smiles": "Cn1c(O)c(/C=N/Nc2ccccc2)c(=O)n(C)c1=O", "inhibition": 63.1}
{"smiles": "COCCN=c1scc(-c2ccccc2)n1/N=C/c1c[nH]c2ccccc12", "inhibition": 45.1}
{"smiles": "Cc1ccccc1OCCCSc1nc2ccccc2[nH]1", "inhibition": 34.3}
{"smiles": "CC(C)c1ccc(NC(=S)NCCc2c[nH]c3ccccc23)cc1", "inhibition": 40.2}
{"smiles": "CCOC(=O)c1c(C)oc2c1c(C(c1ccccc1)N1CCOCC1)c(O)c1ccccc12", "note": "(stereo not drawn)", "inhibition": 49.6}
{"smiles": "Cc1[nH]c2ccccc2c1C(=O)COC(=O)c1ccc([N+](=O)[O-])s1", "inhibition": 98}
{"smiles": "Cc1ccc(NC(=S)NCC(C)CSc2ccc(Cl)cc2)cc1", "note": "(stereo not drawn)", "inhibition": 50.7}
{"smiles": "Cc1ccc(C2CC(c3cccs3)=NN2C(=O)c2ccc(Br)o2)cc1", "note": "(stereo not drawn)", "inhibition": 61.9}
{"smiles": "Cc1ccc(NC(=O)C(Nc2cccc(C)c2)c2ccccc2)cc1", "note": "(stereo not drawn)", "inhibition": 29.4}
{"smiles": "COc1ccc(N2CCN(C(=O)c3ccc(Br)cc3)CC2)c([N+](=O)[O-])c1", "inhibition": 68.3}
{"smiles": "CNC(=S)N/N=C(\\C)c1ccc(C(C)(C)C)cc1", "inhibition": 55.8}
{"smiles": "O=C(Nc1cccnc1)Nc1cc(Cl)cc(Cl)c1", "inhibition": 74.6}
{"smiles": "COc1ccc(CCNC(=S)Nc2cc(C)ccc2C)cc1", "inhibition": 50.1}
{"smiles": "CCC1(c2ccc(Cl)cc2)NC(=S)N(c2ccc(C)cc2)N1", "note": "(stereo not drawn)", "inhibition": 57.7}
{"smiles": "O=C(c1ccc(Cl)cc1)N1CCC(O)(CSc2ccc(Cl)cc2)CC1", "inhibition": 54.8}
{"smiles": "O=C(COc1c(Br)cc(Br)c2cccnc12)N1CCc2ccccc2C1", "inhibition": 44.4}
{"smiles": "CCn1c(NC(=O)c2ccc(F)cc2)c2ccccc2nc1=O", "inhibition": 10.4}
{"smiles": "Cc1cc(OCC(=O)Nc2ccncc2)cc(C)c1Br", "inhibition": 64.9}
{"smiles": "COC(=O)CNC(c1ccccc1)c1cc(C)ccc1NC(=O)c1cccc(Cl)c1", "note": "(stereo not drawn)", "inhibition": 5.3}
{"smiles": "O=S(=O)(c1ccc(Cl)c(Cl)c1)c1snnc1-c1ccccc1", "inhibition": 78.3}
{"smiles": "CC(C)c1ccc(NC(=S)NCc2cccs2)cc1", "inhibition": 56.1}
{"smiles": "Fc1ccc(C2c3cccn3CCN2C(=S)Nc2cccc(F)c2)cc1", "note": "(stereo not drawn)", "inhibition": 32.1}
{"smiles": "O=C(OCc1csc(Nc2ccccc2)n1)c1ccc(Cl)cc1", "inhibition": 14}
{"smiles": "O=c1c2c3c(sc2nc(NCCO)n1CCc1ccccc1)CCCCC3", "inhibition": 3.89}
{"smiles": "Cc1cccc(-n2ncc3c(N4CCCc5ccccc54)ncnc32)c1", "inhibition": 58.7}
{"smiles": "COc1ccc(NCc2nc3ccccc3n2CCOc2ccc(C)cc2)cc1", "inhibition": 64.1}
{"smiles": "Cc1ccc(Cl)cc1N1CCN(C(=S)NCCc2ccccc2)CC1", "inhibition": 29.7}
{"smiles": "O=c1cc(N2CCCCC2)c(-c2ccccc2)nn1Cc1ccc(Cl)cc1Cl", "inhibition": 21.1}
{"smiles": "S=C(NCCc1ccccc1)N1CCc2ccccc2C1", "inhibition": 61.3}
{"smiles": "Cc1ccc(/C=C/C(=O)N2CCC(Cc3ccccc3)CC2)cc1", "inhibition": 14.1}
{"smiles": "CCn1c(=N)n(CC(=O)C23CC4CC(CC(C4)C2)C3)c2ccccc21", "inhibition": 76.2}
{"smiles": "O=C(CN1CC[n+]2c(-c3cccs3)csc21)c1ccc(-c2ccccc2)cc1", "inhibition": 67.9}
{"smiles": "C(=N\\Nc1nc(N2CCCCC2)nc(N2CCCCC2)n1)/c1c[nH]c2ccccc12", "inhibition": 32}
{"smiles": "CCOC(=O)c1c(NS(=O)(=O)c2ccc(Br)cc2)sc2c1CCC2", "inhibition": -0.97}
{"smiles": "CCCCOc1ccc(CONS(=O)(=O)c2ccc(NC(C)=O)cc2)cc1Cl", "inhibition": 14.8}
{"smiles": "CC1CCN(C(C)C(=O)Nc2ccccc2-c2ccccc2)CC1", "note": "(stereo not drawn)", "inhibition": 7.86}
